# Part of at least one peptide drawing is inferred or uncertain, most often the ends. Square brackets hold non-standard residues; d marks the D form. Ends that are not written are not given here. Peptide text beside a SMILES is read from it. Phe(4-NH2) = Nc1ccc(C[C@H](N)C(=O)O)cc1; Nle = CCCC[C@H](N)C(=O)O; Orn = NCCC[C@H](N)C(=O)O
# What was measured:
# [1] = test system: E. coli ATCC 25922; assay: Antibacterial assay, broth microdilution MIC; format: cell-based; details: Mueller Hinton broth, 16-20 hours at 37° C., lowest concentration producing a clear well
# [2] = test system: S. aureus ATCC 25923; assay: Antibacterial assay, broth microdilution MIC; format: cell-based; details: Mueller Hinton broth, 16-20 hours at 37° C., lowest concentration producing a clear well
Molecule,MIC (E) [1],MIC (S) [2]
C[C@H](NC(=O)[C@H](Cc1ccccc1)NC(=O)[C@H](CCCCN)NC(=O)CNC(=O)[C@H](C)NC(=O)[C@H](Cc1ccccc1)NC(=O)[C@H](CCCCN)NC(=O)[C@H](C)NC(=O)[C@H](Cc1ccccc1)NC(=O)[C@H](CCCN)NC(=O)CNC(=O)[C@H](C)NC(=O)[C@H](Cc1ccccc1)NC(=O)[C@H](CCCCN)NC(=O)[C@H](C)NC(=O)[C@H](Cc1ccccc1)NC(=O)[C@H](CCCCN)NC(=O)CNC(=O)[C@H](C)NC(=O)[C@H](Cc1ccccc1)NC(=O)[C@@H](N)CCCCN)C(N)=O [Peptide (SEQ ID NO:49)] (H-KFAGKFAKFAG[Orn]FAKFAGKFA-NH2),"4,8 μg/ml",32 µg/mL
CC[C@H](C)[C@H](NC(=O)[C@H](CCCCN)NC(=O)[C@H](C)NC(=O)[C@H](Cc1ccccc1)NC(=O)[C@H](CCCN)NC(=O)CNC(=O)[C@H](C)NC(=O)[C@@H](NC(=O)[C@H](CCCCN)NC(=O)[C@H](C)NC(=O)[C@H](Cc1ccccc1)NC(=O)[C@H](CCCCN)NC(=O)CNC(=O)[C@H](C)NC(=O)[C@@H](NC(=O)[C@@H](N)CCCCN)[C@@H](C)CC)[C@@H](C)CC)C(=O)N[C@@H](C)C(=O)NCC(=O)N[C@@H](CCCCN)C(=O)N[C@@H](Cc1ccccc1)C(=O)N[C@@H](C)C(N)=O [Peptide (SEQ ID NO:50)] (H-KIAGKFAKIAG[Orn]FAKIAGKFA-NH2),8 µg/mL,64 µg/mL
CCCC[C@H](NC(=O)[C@H](CCCCN)NC(=O)CNC(=O)[C@H](C)NC(=O)[C@@H](NC(=O)[C@H](CCCCN)NC(=O)[C@H](C)NC(=O)[C@H](CCCC)NC(=O)[C@H](CCCN)NC(=O)CNC(=O)[C@H](C)NC(=O)[C@@H](NC(=O)[C@H](CCCCN)NC(=O)[C@H](C)NC(=O)[C@H](CCCC)NC(=O)[C@H](CCCCN)NC(=O)CNC(=O)[C@H](C)NC(=O)[C@@H](NC(=O)[C@@H](N)CCCCN)[C@@H](C)CC)[C@@H](C)CC)[C@@H](C)CC)C(=O)N[C@@H](C)C(N)=O [Peptide (SEQ ID NO:51)] (H-KIAGK[Nle]AKIAG[Orn][Nle]AKIAGK[Nle]A-NH2),2 µg/mL,"2,4 μg/ml"
CCCC[C@H](NC(=O)[C@H](CCCCN)NC(=O)CNC(=O)[C@H](C)NC(=O)[C@H](CCCCN)NC(=O)[C@H](CO)NC(=O)[C@H](C)NC(=O)[C@@H](NC(=O)[C@@H](N)CCCCN)[C@@H](C)CC)C(=O)N[C@@H](C)C(=O)NCC(=O)N[C@@H](CCCCN)C(=O)N[C@H](C(=O)N[C@@H](C)C(=O)N[C@@H](CCCCN)C(=O)N[C@H](C(=O)N[C@@H](C)C(=O)N[C@@H](CC(C)C)C(=O)N[C@@H](CCCCN)C(=O)N[C@@H](C)C(=O)N[C@@H](CC(C)C)C(N)=O)C(C)C)[C@@H](C)CC [Peptide (SEQ ID NO:54)] (H-KIASKAGK[Nle]AGKIAKVALKAL-NH2),4 µg/mL,16 µg/mL
CCCC[C@H](NC(=O)[C@H](CCCCN)NC(=O)CNC(=O)[C@H](C)NC(=O)[C@H](CCCCN)NC(=O)[C@H](CO)NC(=O)[C@H](C)NC(=O)[C@H](CC(C)C)NC(=O)[C@@H](N)CCCCN)C(=O)N[C@@H](C)C(=O)NCC(=O)N[C@@H](CCCCN)C(=O)N[C@H](C(=O)N[C@@H](C)C(=O)N[C@@H](CCCCN)C(=O)N[C@H](C(=O)N[C@@H](C)C(=O)N[C@@H](CC(C)C)C(=O)N[C@@H](CCCCN)C(=O)N[C@@H](C)C(=O)N[C@@H](CC(C)C)C(N)=O)C(C)C)[C@@H](C)CC [Peptide (SEQ ID NO:55)] (H-KLASKAGK[Nle]AGKIAKVALKAL-NH2),4 µg/mL,16 µg/mL
CCCC[C@H](NC(=O)[C@H](CCCCN)NC(=O)CNC(=O)[C@H](C)NC(=O)[C@H](CCCCN)NC(=O)[C@H](CO)NC(=O)[C@H](C)NC(=O)[C@H](CCCC)NC(=O)[C@@H](N)CCCCN)C(=O)N[C@@H](C)C(=O)NCC(=O)N[C@@H](CCCCN)C(=O)N[C@H](C(=O)N[C@@H](C)C(=O)N[C@@H](CCCCN)C(=O)N[C@H](C(=O)N[C@@H](C)C(=O)N[C@@H](CC(C)C)C(=O)N[C@@H](CCCCN)C(=O)N[C@@H](C)C(=O)N[C@@H](CC(C)C)C(N)=O)C(C)C)[C@@H](C)CC [Peptide (SEQ ID NO:56)] (H-K[Nle]ASKAGK[Nle]AGKIAKVALKAL-NH2),"2,4 μg/ml",8 µg/mL
CC[C@H](C)[C@H](NC(=O)[C@H](CCCCN)NC(=O)CNC(=O)[C@H](C)NC(=O)[C@@H](NC(=O)[C@H](CCCCN)NC(=O)[C@H](C)NC(=O)[C@@H](NC(=O)[C@H](Cc1ccc(N)cc1)NC(=O)CNC(=O)[C@H](C)NC(=O)[C@@H](NC(=O)[C@H](CCCCN)NC(=O)[C@H](C)NC(=O)[C@@H](NC(=O)[C@H](CCCCN)NC(=O)CNC(=O)[C@H](C)NC(=O)[C@@H](NC(=O)[C@@H](N)CCCCN)[C@@H](C)CC)[C@@H](C)CC)[C@@H](C)CC)[C@@H](C)CC)[C@@H](C)CC)C(=O)N[C@@H](C)C(N)=O [Peptide (SEQ ID NO:57)] (H-KIAGKIAKIAG[Phe(4-NH2)]IAKIAGKIA-NH2),"4,8 μg/ml",4 µg/mL
"AGKIAKIAGKIAKIAGKIAKI-NH2 [Peptide (SEQ ID NO:27), (Ala Gly Lys Ile Ala Lys Ile)3 --NH2]",4 µg/mL,32 µg/mL
AIAGKIAKIAGKIAKIAGKIA-NH2 [Peptide (SEQ ID NO:65)],"8,16 μg/ml",32 µg/mL
"AKIAGKIAKIAGKIAKIAGKI-NH2 [Peptide (SEQ ID NO:33), (Ala Lys Ile Ala Gly Lys Ile)3 --NH2]",4 µg/mL,64 µg/mL
"GFAKIAKGFAKIAKGFAKIAK-NH2 [Peptide (SEQ ID NO:13), (Gly Phe Ala Lys Ile Ala Lys)3 --NH2]",16 µg/mL,32 µg/mL
"GIAKIAKGIAKIAKGIAKIAK-NH2 [Peptide (SEQ ID NO:9), (Gly Ile Ala Lys Ile Ala Lys)3 --NH2]","8,16 μg/ml",16 µg/mL
"GIARIAKGIARIAKGIARIAK-NH2 [Peptide (SEQ ID NO:11), (Gly Ile Ala Arg Ile Ala Lys)3 --NH2]",8 µg/mL,"16,32 μg/ml"
"GIARIFKGIARIFKGIARIFK-NH2 [Peptide (SEQ ID NO:17), (Gly Ile Ala Arg Ile Phe Lys)3 --NH2]",16 µg/mL,16 µg/mL
GMASKAGKIAGKIAKVALKAL-NH2 [Peptide (SEQ ID NO:68)],"8,16 μg/ml","16,32 μg/ml"
"HIAGHIAHIAGHIAHIAGHIA-NH2 [Peptide (SEQ ID NO:26), (His Ile Ala Gly His Ile Ala)3 --NH2]",256 µg/mL,128 µg/mL
"IAKIAGKIAKIAGKIAKIAGK-NH2 [Peptide (SEQ ID NO:28), (Ile Ala Lys Ile Ala Gly Lys)3 --NH2]",32 µg/mL,128 µg/mL
"KAIGKAIKAIGKAIKAIGKAI-NH2 [Peptide (SEQ ID NO:8), (Lys Ala Ile Gly Lys Ala Ile)3 --NH2]",16 µg/mL,8 µg/mL
"KALSKALKALSKALKALSKAL-NH2 [Peptide (SEQ ID NO:6), (Lys Ala Leu Ser Lys Ala Leu)3 --NH2]",256 µg/mL,128 µg/mL
"KFAGKFAKFAGKFAKFAGKFA-NH2 [Peptide (SEQ ID NO:5), (Lys Phe Ala Gly Lys Phe Ala)3 --NH2]","4,16 μg/ml",32 µg/mL

# From US5459237A, “Peptide compositions and uses therefor” (priority 1992, dated 1995)
